Assay results reported in patent US20190048089A1 (Janssen / Centocor, published 2019).

How the values were obtained:
[1] = target: T1, human CD40 on cells (human tonsillar B cells, human dendritic cells, HEK-Blue CD40L cells) (human, UniProt P25942 21-277); assay: cell-based or functional assay
[2] = target: T1, human CD40 on cells (human tonsillar B …); assay: cell-based or functional assay; remark: listed apart in the source
[3] = target: T2, human CD40 (analyte in SPR) (human, UniProt P25942 fragment); assay: affinity in benchmark table; method not restated (SPR ProteOn of Example 3 presumed)
T2 construct: also called huCD40

B1: BMS-986090 (Fc fusion)
heavy: EVQLLESGGGLVQPGGSLRLSCAASGFTFRDYEMWWVRQAPGKGLERVSAINPQGTRTYYADSVKGRFTISRDNSKNTLYLQMNSLRAEDTAVYYCAKLPFRFSDRGQGTLVTVSSAST[omitted - human IgG4 Fc with S228P (EU numbers)]
notes: Benchmark
IC50, B cell proliferation, membrane CD40L, human B-cells [1]: 393 pM | IC50, B cell proliferation, soluble CD40L, human B-cells [1]: 288 pM | IC50, human DC IL-12p40 production, membrane CD40L [2]: 822 pM | IC50, human DC IL-12p40 production, soluble CD40L [2]: 285 pM | Kd [3]: 870 pM
